Measured values: PubChem BioAssay AID463173 (ICCB-Longwood Screening Facility, Harvard Medical School, 2010)
Hit rate of the full screen: of about 52,000 compounds, about 4,300 (8.3%) were called active. No stated cut-off is given here; in the data, active means survival mostly below about 52% (no sharp cut-off); inactive means mostly above about 56%. The list shows a part of the results.

system: DeltatarO mutant; experiment: growth inhibition of S. aureus wild type versus tarO mutant, primary screen, teichoic acid synthesis inhibitors, RN4220, OD600 (AID 463173); conditions: OD600, 18 h, stronger effect = lower value, screened at 18.75 µg/mL (by protocol)

Question: With Cc1nc(N2CCCC2)c2c(C(=O)N3CCN(c4cc(Cl)ccc4C)CC3)c(C)oc2n1 as the compound, how does the survival read?
Answer: inactive: 102%

Question: CCn1c(=O)c(=O)n(CC)c2cc(S(=O)(=O)Nc3ccc(C)cc3)ccc21 was tested. Which survival did it give?
Answer: inactive: 114%

Question: For O=C(Nc1ccccc1)c1snc2c(=O)[nH]cnc12, which survival is on record?
Answer: inactive: 113%

Question: For CCCC(=O)N1CCN(c2nc3ccc(F)cc3s2)CC1, which survival is on record?
Answer: inactive: 101%

Question: Which survival does the source give for O=C(Cn1c(=O)c2cccn2c2ccccc21)NCc1ccccc1F here?
Answer: inactive: 84%

Question: COC(=O)c1ccc(NC(=O)Cn2cnc3c2c(=O)n(C)c(=O)n3C)cc1 was tested. Which survival did it give?
Answer: inactive: 80%

Question: How did the survival turn out when Cc1cccc(N(CC(=O)NCCSCc2ccccc2)S(=O)(=O)c2ccccc2)c1C was run?
Answer: inactive: 57%

Question: CCc1cccc(C)c1NC(=O)C1CCCN1S(=O)(=O)c1cccc2nsnc12 (stereo not given) was tested. Which survival did it give?
Answer: inactive: 68%

Question: CCc1ccc(N=C2NC(=O)CC(C(=O)Nc3ccc(OC)cc3)S2)cc1 (stereo not given) was tested. Which survival did it give?
Answer: inactive: 87%

Question: CN(C)S(=O)(=O)c1ccc(NC(=O)CNCc2ccco2)cc1 was tested. Which survival did it give?
Answer: inactive: 97%

Question: For O=C(Nc1ccc2oc(=O)ccc2c1)c1cccc(F)c1, which survival is on record?
Answer: inactive: 76%

Question: COc1cc2c(cc1OC)C(COc1ccccc1OC)N(C(=O)CC(C)C)CC2 (stereo not given) was tested. Which survival did it give?
Answer: inactive: 70%

Question: How did the survival turn out when CCOC(=O)c1ccccc1NC(=O)Cn1cc(C(=O)c2cccc(OC)c2)c(=O)c2ccc(C)nc21 was run?
Answer: inactive: 85%

Question: With CCOC(=O)c1c(C)[nH]c(CCC(=O)NCCCN2CCN(c3ccc(F)cc3)CC2)c1C as the compound, how does the survival read?
Answer: inactive: 94%

Question: For COc1ccc2cc(CNC3CCCCC3)c(=O)[nH]c2c1, which survival is on record?
Answer: inactive: 91%

Question: With CC(C)c1ccc(NC(=O)c2cc3c(s2)-c2ccccc2SC3)cc1 as the compound, how does the survival read?
Answer: inactive: 100%

Question: How did the survival turn out when Cc1ccc(CCNC(=O)c2ccc3c(c2)N(Cc2cccc(C)c2)C(=O)c2ccccc2S3(=O)=O)cc1 was run?
Answer: inactive: 72%

Question: With COCCc1nn2c(=O)cc(COC(=O)c3ccc4c(c3)OCO4)nc2s1 as the compound, how does the survival read?
Answer: inactive: 128%

Question: CC(=O)Nc1ccc(C(=O)CSc2nnc(-c3ccccc3)n2-c2ccccc2)cc1 was tested. Which survival did it give?
Answer: inactive: 62%

Question: Which survival does the source give for Cc1ccc(-c2cc(C(=O)NCc3cnn(C)c3C)c3cc(Br)ccc3n2)cc1 here?
Answer: active: 36%

Question: How did the survival turn out when Cc1ccc(S(=O)(=O)c2nc(-c3ccccc3F)oc2N2CCCCC2)cc1 was run?
Answer: active: 32%

Question: Which survival does the source give for Cc1ccc(S(=O)(=O)N/N=C2/CSCC2NC(=O)c2ccccc2)cc1 (stereo not given) here?
Answer: inactive: 87%

Question: How did the survival turn out when CSc1nnc(-c2ccccc2N)c(=O)[nH]1 was run?
Answer: inactive: 87%

Question: Which survival does the source give for CC(=O)N1CCc2cc(CNS(=O)(=O)c3ccc(F)cc3)ccc21 here?
Answer: inactive: 80%

Question: With CCc1ccc(-c2cn3c(n2)sc2cc(C(=O)NC4CCCCCC4)ccc23)cc1 as the compound, how does the survival read?
Answer: inactive: 79%

Question: With O=C(NCc1cccc(Cl)c1)c1cc2c(s1)-c1ccccc1OC2 as the compound, how does the survival read?
Answer: inactive: 50%

Question: With CCc1c(C)sc2c1CCN(Cc1cccc(F)c1)C2c1ccccc1 (stereo not given) as the compound, how does the survival read?
Answer: inactive: 66%

Question: Which survival does the source give for O=C(NC1CCN(C(=O)NC2CCCCC2)CC1)c1ccc(F)cc1 here?
Answer: inactive: 85%

Question: Which survival does the source give for CCS(=O)(=O)N1CCc2cc(C(=O)NCc3ccc(OC)cc3)ccc21 here?
Answer: inactive: 89%

Question: Which survival does the source give for Cn1cc(S(=O)(=O)c2cccc(Cl)c2)c(=O)c2cc(F)c(N3CCCCCC3)cc21 here?
Answer: inactive: 81%

Question: Which survival does the source give for CCC(CC)C(=O)Nc1ccc(OCc2cc(=O)n3c4c(sc3n2)CCCC4)cc1 here?
Answer: inactive: 100%

Question: O=C(NC1CC1)c1ccc(Cn2c(SCc3cccc(F)c3)nc3cccnc32)cc1 was tested. Which survival did it give?
Answer: inactive: 112%

Question: For Cn1c(SCC#N)nnc1-c1ccccc1, which survival is on record?
Answer: inactive: 92%

Question: How did the survival turn out when O=C(Nc1ccc(Cl)cc1)C1CCN(c2nc3ccccc3nc2C(F)(F)F)CC1 was run?
Answer: active: 25%

Question: For O=C(Nc1ccc(F)c(F)c1)c1nc2ncccn2n1, which survival is on record?
Answer: inactive: 82%

Question: How did the survival turn out when O=C(NCC(c1cccnc1)N1CCc2ccccc2C1)c1ccc(F)c(F)c1 (stereo not given) was run?
Answer: inactive: 70%

Question: For COc1ccccc1N1CCN(C(=O)c2ccc(CS(=O)c3ccccc3C)o2)CC1 (stereo not given), which survival is on record?
Answer: inactive: 75%

Question: With COc1ccc(CCN2C(=O)c3oc4cc(C)cc(C)c4c(=O)c3C2c2ccc(F)cc2)cc1OC (stereo not given) as the compound, how does the survival read?
Answer: inactive: 56%

Question: With O=C(Nc1ccc(NC(=O)c2cc3ccccc3o2)cc1)c1ccccc1 as the compound, how does the survival read?
Answer: inactive: 86%

Question: For COc1cccc(C2(O)CCN(CC(=O)N3CCCC3)CC2)c1, which survival is on record?
Answer: inactive: 107%

Question: With O=C(CN1CCN(S(=O)(=O)c2cc(Cl)ccc2Cl)CC1)Nc1cccc(F)c1 as the compound, how does the survival read?
Answer: inactive: 92%

Question: For Cn1cc(S(=O)(=O)c2ccc(Cl)cc2)c(=O)c2cc(F)c(N3CCCCCC3)cc21, which survival is on record?
Answer: inactive: 83%

Question: CCOc1ccc(C2CC(=O)n3nc(-c4ccc(C)cc4)nc3S2)cc1OC (stereo not given) was tested. Which survival did it give?
Answer: inactive: 116%

Question: For Cc1cccnc1NCC(O)COc1ccccc1 (stereo not given), which survival is on record?
Answer: inactive: 88%

Question: With Fc1ccc(-c2nc(Nc3ccc(F)c(Cl)c3)nc3c2COc2ccccc2-3)cc1 as the compound, how does the survival read?
Answer: inactive: 55%

Question: How did the survival turn out when CC(C(=O)Nc1cccc(C#N)c1)n1nc(-c2ccccc2)c2c(c1=O)CCCC2 (stereo not given) was run?
Answer: active: 20%

Question: With CCOC(=O)C1CCCN(C(=O)c2ccc3c(c2)N(Cc2ccccc2)C(=O)c2ccccc2S3(=O)=O)C1 (stereo not given) as the compound, how does the survival read?
Answer: inactive: 60%

Question: Which survival does the source give for CC1=C(C(=O)Nc2ccc(C)cc2C)C(c2ccccc2[N+](=O)[O-])n2ncc(C(=O)Nc3ccccc3)c2N1 (stereo not given) here?
Answer: inactive: 87%

Question: CS(=O)(=O)N(CC(=O)N1CCc2ccccc2C1)c1ccc(F)cc1 was tested. Which survival did it give?
Answer: inactive: 83%

Question: With CCOc1ccc(NC(=O)c2ccc3c(SCC(=O)O)c4c(nc3c2)CCCC4)cc1 as the compound, how does the survival read?
Answer: inactive: 76%

Question: Cc1ccc(C(=O)N2CCc3cc(CNS(=O)(=O)c4ccc(Cl)s4)ccc32)cc1 was tested. Which survival did it give?
Answer: inactive: 67%

Question: How did the survival turn out when Cc1ccc(C)c(N2CCN(C(=O)C3CCN(c4nc(-c5ccc(C(C)C)cc5)no4)CC3)CC2)c1 was run?
Answer: inactive: 80%

Question: COc1c(C)cc(S(=O)(=O)NCCc2c(C)[nH]c3ccccc23)c(C)c1C was tested. Which survival did it give?
Answer: active: 59%

Question: For CCOC(=O)c1cc(-c2ccccc2)n(-c2cccc(C(=O)Nc3ccc(F)c(F)c3)c2)c1C, which survival is on record?
Answer: inactive: 87%

Question: With COc1ccccc1CNC(=O)CCn1c(=O)c2ccccc2n(CC(=O)Nc2cccc(Cl)c2)c1=O as the compound, how does the survival read?
Answer: inactive: 78%

Question: How did the survival turn out when Cc1c(NC(=O)c2cc(-c3ccc(Cl)c(Cl)c3)on2)c(=O)n(-c2ccccc2)n1C was run?
Answer: active: 38%

Question: Cc1ccc(CNC(=O)Cn2nc(C)n3cccc3c2=O)cc1 was tested. Which survival did it give?
Answer: inactive: 89%

Question: How did the survival turn out when O=C(O)CCn1nnc(-c2cccs2)n1 was run?
Answer: inactive: 103%

Question: Cc1ccc(-n2ncc(C(=O)N3CCN(c4cccc(C)c4)C(C)C3)c2C2CCN(C(=O)OC(C)(C)C)CC2)cc1 (stereo not given) was tested. Which survival did it give?
Answer: inactive: 129%

Question: Which survival does the source give for CCOc1ccc(N2CC(c3nc4ccccc4n3Cc3cccc(Cl)c3)CC2=O)cc1 (stereo not given) here?
Answer: active: 37%

Question: How did the survival turn out when Cc1c2cnn(CC(=O)N3CCN(c4ccc(F)cc4)CC3)c(=O)c2c(C)n1Cc1ccc(F)cc1 was run?
Answer: inactive: 68%

Question: With O=C(NCc1ccc(Cl)cc1)c1cc(S(=O)(=O)N2CCCCC2)c[nH]1 as the compound, how does the survival read?
Answer: inactive: 103%

Question: For CCOc1ccc2nc(NC(=O)c3cc(=O)c4ccc(C)cc4o3)sc2c1, which survival is on record?
Answer: active: 25%

Question: For Cc1cc(C)cc(C(=O)Nc2ccc(-c3nc4ncccc4o3)cc2)c1, which survival is on record?
Answer: inactive: 56%

Question: With COc1cccc(N2CCN(C(=O)C(CCSC)NS(=O)(=O)c3ccc4c(c3)oc(=O)n4C)CC2)c1 (stereo not given) as the compound, how does the survival read?
Answer: inactive: 106%

Question: CCc1ccc(CNC(=O)Cc2ccc(NC(=O)N3CCSc4ncccc43)cc2)cc1 was tested. Which survival did it give?
Answer: inactive: 94%

Question: CCOC(=O)CSc1nc2ccc(NC(=O)c3ccc(C)cc3)cc2s1 was tested. Which survival did it give?
Answer: inactive: 87%

Question: For O=C(O)c1ccc2c(c1)ncn2-c1ccc(F)c(F)c1, which survival is on record?
Answer: inactive: 74%

Question: How did the survival turn out when CCCc1cc(=O)n(-c2ccc(C(=O)O)cc2)[nH]1 was run?
Answer: inactive: 81%

Question: With OC1CN=C2C=CC=CN2C1 (stereo not given) as the compound, how does the survival read?
Answer: inactive: 89%

Question: How did the survival turn out when CCOc1ccc(S(=O)(=O)NCC(c2ccco2)S(=O)(=O)c2cccs2)cc1 (stereo not given) was run?
Answer: inactive: 93%

Question: For CCOC(=O)c1ccc(NC(=O)CCCc2nc(-c3ccccc3Cl)no2)cc1, which survival is on record?
Answer: active: 36%

Question: COc1ccc(OC)c(NC(=O)C2CCCN(S(=O)(=O)c3c(C)nn(C)c3C)C2)c1 (stereo not given) was tested. Which survival did it give?
Answer: inactive: 86%

Question: With Cc1ccc(NC(=O)c2cnn3c(C(F)F)cc(-c4ccccc4)nc23)c(C)c1 as the compound, how does the survival read?
Answer: inactive: 79%

Question: How did the survival turn out when COc1ccc(N2CCN(C(=O)CCc3c(C)nn(-c4ccc(N5CCCC5)nn4)c3C)CC2)cc1 was run?
Answer: inactive: 91%

Question: For Cc1ccc(NC(=O)Nc2nnc(N(CC(C)C)CC(C)C)s2)cc1Cl, which survival is on record?
Answer: inactive: 87%

Question: Which survival does the source give for Cc1ccc(S(=O)(=O)N(CC(=O)N2CCC(C(N)=O)CC2)c2ccccc2F)cc1 here?
Answer: inactive: 92%

Question: Which survival does the source give for Fc1ccc(-c2noc3ncnc(N4CCN(c5ccccc5)CC4)c23)cc1 here?
Answer: inactive: 89%

Question: Which survival does the source give for COc1ccc(S(=O)(=O)N2CCN(c3ccccc3F)CC2)cc1-c1noc(C)n1 here?
Answer: inactive: 59%

Question: Which survival does the source give for CCc1nc2c(Cl)cc(Cl)cc2c(=O)o1 here?
Answer: inactive: 86%

Question: Cc1ccccc1C(=O)N/C(=C/c1ccc(-c2cccnc2Cl)o1)C(=O)NC1CC1 was tested. Which survival did it give?
Answer: inactive: 106%

Question: For O=C(NCc1ccc(F)cc1)c1ccc2c(Cl)c3c(nc2c1)CCCC3, which survival is on record?
Answer: inactive: 57%

Question: How did the survival turn out when O=C(O)C1CCCCC1C(=O)N1CCCCCC1 (stereo not given) was run?
Answer: inactive: 77%

Question: COc1ccc(OC)c(NC(=O)c2cc3c(=O)oc4ccccc4c3s2)c1 was tested. Which survival did it give?
Answer: inactive: 62%

Question: Which survival does the source give for Cc1cc2c(cc1S(=O)(=O)NCc1ccccc1Cl)OCCN2C here?
Answer: inactive: 106%

Question: For CCN(CC)c1nn2c(=O)c(C(=O)NCCc3ccccc3)cnc2s1, which survival is on record?
Answer: inactive: 72%

Question: Which survival does the source give for Cc1ccc(C)c(NC(=O)c2ccc3c(O)c(S(=O)(=O)c4ccc(Cl)cc4)c(=O)[nH]c3c2)c1 here?
Answer: inactive: 66%

Question: With CCCCSCCCNC(=O)CN1C(=O)c2cccnc2Oc2ccc(Cl)cc21 as the compound, how does the survival read?
Answer: inactive: 94%

Question: CCOc1ccc(-c2nonc2NC(=O)c2oc3cc(C)ccc3c2C)cc1 was tested. Which survival did it give?
Answer: inactive: 72%

Question: For O=C(O)Cn1cc(C=C2C(=O)NC(=S)NC2=O)c2ccccc21, which survival is on record?
Answer: inactive: 62%
